Laboratory results published in PubChem BioAssay AID504832 (National Center for Advancing Translational Sciences (NCATS), 2011).
The campaign covered roughly 310,000 compounds. About 18,000 (5.8%) were called active. The shares of active, inactive and inconclusive entries below differ from those in the screen. The call rests on the fitted dose curve; in most records, active means well fitted inhibition curve with a large enough effect; inconclusive means small, poorly fitted or top-dose-only effect, or another doubt; inactive means no such curve, though single readings can be large or run the other way. Potencies of inconclusive entries are left out as doubtful fits.

assay: Primary qHTS for delayed death inhibitors of the malarial parasite plastid, 48 hour incubation; details: P. falciparum luciferase growth in erythrocytes; series mostly up to 28.7 µM
Summary of the method: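 Erythrocytes infected with P. falciparum carrying an integrated firefly luciferase reporter (2% hematocrit, 0.1% parasitemia final) were exposed to compounds in RPMI 1640 with 0.5% Albumax at 37 C, 5% CO2. Growth inhibition was scored as reduced luminescence.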
Potency means the concentration at half of the fitted maximal effect; tags describe the fitted curve by direction and shape.

Row | Compound | Potency
1 | CC(O)[C@H]1CC[C@H]2[C@@H]3CC[C@H]4C[C@H](O)CC[C@]4(C)[C@H]3[C@H](O)C[C@]12C (some centres undefined) | inactive
2 | O=C(Cn1sc2ccccc2c1=O)N1CCN(C(=O)c2ccco2)CC1 | inconclusive [inhibitor, partial curve, poor fit]
3 | Cc1ccc(N(CC#N)C(=O)CS(=O)(=O)c2cccc([N+](=O)[O-])c2)cc1 | inconclusive [inhibitor, partial curve]
4 | COc1cc(/C=N/n2c(-c3ccc4c(c3)NC(=O)CO4)csc2=Nc2cccc(C)c2)ccc1O | inconclusive [inhibitor, partial curve, poor fit]
5 | Cc1ccc(S(=O)(=O)CCC(=O)OCC(=O)N(C)CC(=O)Nc2ccc(F)cc2)cc1 | inconclusive [inhibitor, partial curve, poor fit]
6 | COc1cccc(NC(=S)NCc2ccccc2)c1 | inconclusive [inhibitor, full curve, poor fit]
7 | Cc1cc(NC(=O)CSc2nnnn2Cc2ccccc2)no1 | inactive
8 | COc1ccc2c(Cl)c(C(=O)NCC3CCCO3)sc2c1Cl (centres undefined) | inactive
9 | COc1cc(C)c(/C=C(\C#N)C(=O)Nc2ccc(C)cc2)cc1C(C)C | inconclusive [inhibitor, partial curve, poor fit]
10 | CN1CCN(Cc2ccc3ccccc3c2)CC1 | inconclusive [inhibitor, partial curve, poor fit]
11 | CCOC(=O)C1CCN(S(=O)(=O)CCNC(=O)c2cccc(OC)c2)CC1 | inactive
12 | Cc1ccc2cc(C#N)c(N3CCN(C)CC3)nc2c1 | inactive
13 | CCOc1ccccc1NC(=O)CN(c1ccc(OC)cc1OC)S(=O)(=O)c1ccccc1[N+](=O)[O-] | inconclusive [inhibitor, partial curve]
14 | CC(=O)/C=C/c1ccccc1Oc1c(F)c(F)nc(F)c1F | inconclusive [inhibitor, single point]
15 | Cc1c(N2CCCC2)cc2c(c1NC(=O)c1ccccc1Cl)C(C)(C)CC2(C)C | inconclusive [inhibitor, partial curve, poor fit]
16 | O=C(NCc1ccc2c(c1)OCO2)C1CC(=O)N(CCc2ccc(F)cc2)C1 (centres undefined) | inactive
17 | Cc1ccc(C)c(S(=O)(=O)C(C#N)c2nc3ccccc3nc2N2CC(C)OC(C)C2)c1 (centres undefined) | active: 13.1 µM
18 | Cc1cc(C)cc(COn2ccnc2)c1 | inactive
19 | O=C(COc1cccc(Br)c1)NN=C1c2ccccc2-c2ccccc21 | inconclusive [inhibitor, full curve, poor fit]
20 | O=[N+]([O-])c1ccc2c(c1)C(N1CCOCC1)/C(=C/COc1ccc(Cl)cc1Cl)O2 (centres undefined) | active: 11.7 µM
21 | CCN(CC)S(=O)(=O)c1ccc(N2CCOCC2)c(NC(=O)c2ccc(N3CCCC3=O)cc2)c1 | active: 7.38 µM
22 | CC(C)NC(=O)CC1Nc2c3ccccc3nc(=S)n2C1=O (centres undefined) | inactive
23 | CCOc1ccc(NC(=S)N(CCCN2CCCC2)Cc2cccn2Cc2ccc(Cl)cc2)cc1 | inconclusive [inhibitor, partial curve, poor fit]

Row | Compound | Potency
24 | COc1ccc(Cn2c(-c3ccc(C)cc3)nc3c(c(=O)c4ccccc4n3C)c2=O)cc1 | active: 13.1 µM
25 | CCC(C)c1ccc2oc(-c3ccc(NC(=O)c4ncn[nH]4)cc3)nc2c1 (centres undefined) | inconclusive [inhibitor, partial curve]
26 | COc1ccccc1NS(=O)(=O)c1cc(NC(=O)c2cccs2)ccc1N1CCCCC1 | inconclusive [inhibitor, single point]
27 | N#CCC(=O)N/N=C/c1c(-c2ccccc2)n(-c2ccccc2)c2ccccc12 | active: 9.28 µM
28 | CCOC(=O)C(Sc1nnc2c3ccccc3n(CC)c2n1)C(=O)OCC | inconclusive [inhibitor, single point]
29 | CCN(c1ccccc1)S(=O)(=O)c1ccc2c(c1)CC(C)N2C(=O)C1CC1 (centres undefined) | inconclusive [inhibitor, partial curve, poor fit]
30 | CN1CCCN=C1COC(=O)C(O)(c1ccccc1)C1CCCCC1 (centres undefined) | inconclusive [inhibitor, single point]
31 | O=C(N/N=C/c1cccnc1)c1cc(-c2ccccc2OCc2ccccc2)n[nH]1 | active: 10.4 µM
32 | Cc1cc(C)c(C)c(S(=O)(=O)Nc2cccc(-n3cnnn3)c2)c1C | inconclusive [inhibitor, partial curve, poor fit]
33 | CC12CCC(=O)N1C(C(=O)NNC(=O)c1ccccc1)CS2 (centres undefined) | inactive
34 | CC(C)CCOc1ccc(C(=O)C[N+]2(C)CCOCC2)cc1 | inconclusive [inhibitor, single point]
35 | CCOCCCn1c(SCC(=O)Nc2cc(C(C)(C)C)nn2-c2ccccc2)nc2ccccc2c1=O | active: 13.1 µM
36 | Cc1cc(C)nc(N/N=C/c2cccc(Cl)c2)n1 | inactive
37 | CCCN(CCC)CCNC(=O)c1cn(C)c(=O)c2c1c1ccccc1n2C | inactive
38 | CCCC[C@H](CN(N=O)[C@@H](Cc1ccccc1)CN(C)N=O)N(CCc1ccccc1)N=O | inconclusive [inhibitor, single point]
39 | N#Cc1ccccc1S(=O)(=O)N1CCN(C(=O)Cc2coc3cc(O)ccc23)CC1 | inconclusive [inhibitor, single point]
40 | Cc1oc(-c2ccccc2)nc1Cn1cccc1C1=NC(c2ccccc2)CO1 (centres undefined) | inconclusive [inhibitor, partial curve, poor fit]
41 | COc1ccc(C(=O)/C=C/c2ccc(OC)c(COc3ccccc3F)c2)cc1 | inconclusive [inhibitor, single point]
42 | COC(=O)NNC(=O)c1ccc(Cl)cc1Cl | inactive
43 | Cc1ccc(S(=O)(=O)N2CCOCC2)cc1NC(=O)CN1CCN(c2ccc(O)cc2)CC1 | inconclusive [inhibitor, partial curve, poor fit]
44 | Cc1c(-c2ccccc2)nc(-c2ccccc2)[nH]c1=O | inactive
45 | CCN(CC)S(=O)(=O)c1cc(OC)ccc1N=Nc1ccc(O)c2ncccc12 | inconclusive [inhibitor, full curve]
46 | Cc1cccc(C)c1OCC1CNC(=O)O1 (centres undefined) | inactive

Row | Compound | Potency
47 | Cc1cc(Oc2ccc(C)c(Cl)c2)nc(SCC(=O)c2ccccc2)n1 | inactive
48 | CC1c2ccccc2SC(CCCN(C)C)c2ccccc21 (centres undefined) | inconclusive [inhibitor, single point]
49 | C#CCOCCOCCOCCNc1nc(N2CCOCC2)nc(N2CCN(C(=O)CCCCCCCCCCNC(=O)[C@@H]([C@H](C)O)n3cc(C)nn3)CC2)n1 | inconclusive [inhibitor, full curve, poor fit]
50 | O=C([C@@H]1Cc2ccccc2CN1)N1CCN(Cc2ccccc2)CC1 | inactive
51 | [O-][n+]1ccccc1SSc1cccc[n+]1[O-] | active: 0.849 µM
52 | Cc1ccc(-n2c(N)c(S(=O)(=O)c3ccccc3)c3nc4ccccc4nc32)cc1 | inactive
53 | C=CCN(CC=C)S(=O)(=O)c1ccc(NC(=S)NC(=O)/C=C/c2cccc3ccccc23)cc1 | inconclusive [inhibitor, single point]
54 | Fc1ccc(C(c2nnnn2Cc2ccccc2)N2CCSCC2)cc1 (centres undefined) | inconclusive [inhibitor, single point]
55 | COc1ccc(CN(Cc2cccn2C)S(=O)(=O)c2ccccc2)cc1 | inconclusive [inhibitor, single point]
56 | COc1ccc(-c2nnc3c4ccccc4c(C)nn23)cc1S(=O)(=O)N1CCN(CCO)CC1 | active: 4.65 µM
57 | CN(C)S(=O)(=O)c1cccc(NC(=O)c2cccc(NS(=O)(=O)c3ccccc3)c2)c1 | inconclusive [inhibitor, partial curve, poor fit]
58 | C=CCc1c(O)c(CC)cc2c(C)cc(=O)oc12 | inactive
59 | COC(=O)C1=C(c2ccc(OC(F)(F)F)cc2)C[C@@H]2CC[C@H]1N2C(=O)NC1CC1 | inconclusive [inhibitor, single point]
60 | CC(C)(Oc1ccc(Cl)cc1)C(=O)O | inconclusive [inhibitor, partial curve, poor fit]
61 | O=C(NCCc1ccccc1)c1ccc2c(c1)S(=O)(=O)c1cc(Cl)ccc1C2=O | inconclusive [inhibitor, single point]
62 | O=C(CSc1n[nH]c(=O)[nH]c1=O)NC1CC1 | inactive
63 | C/C(N)=C(/C#N)C(=O)CSc1nnnn1-c1ccc(C)cc1 | inactive
64 | O=C(Nc1ccc2c(c1)OCO2)C(c1ccccc1)N1CCN(C(=O)c2ccco2)CC1 (centres undefined) | inconclusive [inhibitor, single point]
65 | COC(C[C@@H](O)[C@@H](C)[C@H](O)COCc1ccccc1)OC | inactive
66 | CCn1c(SCCN2CCCCC2)nnc1-c1ccc(S(=O)(=O)N2CCOCC2)cc1 | inconclusive [inhibitor, single point]
67 | Cc1ccc(S(=O)(=O)N2[C@@H](c3ccc(F)cc3)C(C(=O)O)=CC[C@H]2c2cccs2)cc1 | inconclusive [inhibitor, single point]
68 | O=C(NNC(=O)c1sccc1-n1cccc1)c1ccc(Cl)cc1 | inconclusive [inhibitor, full curve, poor fit]
69 | CC(=O)Nc1ccc(Nc2nnc(-c3ccc(C)c(S(=O)(=O)NCC4CCCO4)c3)c3ccccc23)cc1 (centres undefined) | active: 1.04 µM
